# According to the supplement of paper PMC8728848:
# The other results are listed elsewhere or left out.
# Legend:
# Assay in all cases: glycan array binding signal (z-score within array); higher = stronger binding
# Conditions in all cases: glycan notation: IUPAC condensed, linker removed
# GlcNAc(b1-3)Man = target: GlcNAc(b1-3)Man
# How it was run: (§1)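 Glycan array data came from 3228 arrays in the Consortium for Functional Glycomics database, and only arrays with an available protein sequence were kept. Glycan names were put into IUPAC-condensed notation, and columns mapping to the same glycan were averaged. The binding signal is a within-array Z-score, averaged across arrays of one protein sequence run at different concentrations or buffers and across linkers. A negative Z-score can be read as non-binding.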
# [1] = target: GlcNAc(b1-3)[GlcNAc(b1-4)][GlcNAc(b1-6)]GlcNAc
# How it was run: as §1
# [2] = target: GlcNAc(b1-3)[GlcNAc(b1-6)]Gal(b1-4)GlcNAc
# How it was run: as §1
# [3] = target: GlcNAc(b1-3)[GlcNAc(b1-6)]GalNAc
# How it was run: as §1
# [4] = target: GlcNAc(b1-3)[GlcNAc(b1-6)]GlcNAc(b1-4)GlcNAc
# How it was run: as §1
# [5] = target: GlcNAc(b1-4)Gal(b1-4)GlcNAc
# How it was run: as §1
# GlcNAc(b1-4)GlcNAc = target: GlcNAc(b1-4)GlcNAc
# How it was run: as §1
# [6] = target: GlcNAc(b1-4)GlcNAc(b1-4)GlcNAc
# How it was run: as §1
# [7] = target: GlcNAc(b1-4)GlcNAc(b1-4)GlcNAc(b1-4)GlcNAc(b1-4)GlcNAc
# How it was run: as §1
# [8] = target: GlcNAc(b1-4)GlcNAc(b1-4)GlcNAc(b1-4)GlcNAc(b1-4)GlcNAc(b1-4)GlcNAc
# How it was run: as §1
# [9] = target: GlcNAc(b1-4)[GlcNAc(b1-6)]GalNAc
# How it was run: as §1
# [10] = target: GlcNAc(b1-6)Gal(b1-4)GlcNAc
# How it was run: as §1
# GlcNAc(b1-6)GalNAc = target: GlcNAc(b1-6)GalNAc
# How it was run: as §1
# [11] = target: GlcNAc6S(b1-3)Gal(b1-4)GlcNAc
# How it was run: as §1
# Kdn(a2-3)Gal(b1-3)GalNAc = target: Kdn(a2-3)Gal(b1-3)GalNAc
# How it was run: as §1
# Kdn(a2-3)Gal(b1-3)GlcNAc = target: Kdn(a2-3)Gal(b1-3)GlcNAc
# How it was run: as §1
# Kdn(a2-3)Gal(b1-4)Glc = target: Kdn(a2-3)Gal(b1-4)Glc
# How it was run: as §1
# Kdn(a2-3)Gal(b1-4)GlcNAc = target: Kdn(a2-3)Gal(b1-4)GlcNAc
# How it was run: as §1
# [12] = target: Kdn(a2-3)Gal(b1-4)[Fuc(a1-3)]GlcNAc
# How it was run: as §1
# Kdn(a2-6)Gal(b1-4)GlcNAc = target: Kdn(a2-6)Gal(b1-4)GlcNAc
# How it was run: as §1
# [13] = target: Man(a1-2)Man(a1-2)Man(a1-3)Man
# How it was run: as §1
# [14] = target: Man(a1-2)Man(a1-2)Man(a1-6)[Man(a1-3)]Man
# How it was run: as §1
# Man(a1-2)Man(a1-3)Man = target: Man(a1-2)Man(a1-3)Man
# How it was run: as §1
# [15] = target: Man(a1-2)Man(a1-3)[Man(a1-2)Man(a1-6)]Man
# How it was run: as §1
# [16] = target: Man(a1-2)Man(a1-3)[Man(a1-2)Man(a1-6)]Man(a1-6)[Man(a1-2)Man(a1-2)Man(a1-3)]Man
# How it was run: as §1
# [17] = target: Man(a1-2)Man(a1-3)[Man(a1-2)Man(a1-6)]Man(a1-6)[Man(a1-2)Man(a1-2)Man(a1-3)]Man(b1-4)GlcNAc(b1-4)GlcNAc
# How it was run: as §1
# [18] = target: Man(a1-2)Man(a1-3)[Man(a1-2)Man(a1-6)]Man(a1-6)[Man(a1-3)[Man(a1-6)]Man(a1-6)]Man(b1-4)GlcNAc(b1-4)GlcNAc
# How it was run: as §1
# [19] = target: Man(a1-2)Man(a1-3)[Man(a1-6)]Man(a1-6)[Man(a1-2)Man(a1-3)]Man(b1-4)GlcNAc(b1-4)GlcNAc
# How it was run: as §1
# [20] = target: Man(a1-2)Man(a1-6)[Man(a1-3)]Man(a1-6)[Man(a1-2)Man(a1-2)Man(a1-3)]Man
# How it was run: as §1
# [21] = target: Man(a1-2)Man(a1-6)[Man(a1-3)]Man(a1-6)[Man(a1-2)Man(a1-2)Man(a1-3)]Man(b1-4)GlcNAc(b1-4)GlcNAc
# How it was run: as §1
# Man(a1-3)[Man(a1-6)]Man = target: Man(a1-3)[Man(a1-6)]Man
# How it was run: as §1
# [22] = target: Man(a1-3)[Man(a1-6)]Man(a1-6)[Man(a1-2)Man(a1-3)]Man(b1-4)GlcNAc(b1-4)GlcNAc
# How it was run: as §1
# [23] = target: Man(a1-3)[Man(a1-6)]Man(a1-6)[Man(a1-3)]Man
# How it was run: as §1
# [24] = target: Man(a1-3)[Man(a1-6)]Man(a1-6)[Man(a1-3)]Man(b1-4)GlcNAc(b1-4)GlcNAc
# How it was run: as §1
# [25] = target: Man(a1-3)[Man(a1-6)]Man(b1-4)GlcNAc(b1-4)GlcNAc
# How it was run: as §1
# [26] = target: Man(a1-3)[Man(a1-6)]Man(b1-4)GlcNAc(b1-4)[Fuc(a1-6)]GlcNAc
# How it was run: as §1
# Man(a1-6)Man = target: Man(a1-6)Man
# How it was run: as §1
# Man(b1-4)GlcNAc = target: Man(b1-4)GlcNAc
# How it was run: as §1
# MurNAc(b1-4)GlcNAc = target: MurNAc(b1-4)GlcNAc
# How it was run: as §1
# Neu5Ac(a2-3)Gal = target: Neu5Ac(a2-3)Gal
# How it was run: as §1
# [27] = target: Neu5Ac(a2-3)Gal(b1-3)GalNAc
# How it was run: as §1
# [28] = target: Neu5Ac(a2-3)Gal(b1-3)GalNAc(b1-3)Gal(a1-4)Gal(b1-4)Glc
# How it was run: as §1
# [29] = target: Neu5Ac(a2-3)Gal(b1-3)GalNAc(b1-3)Gal(b1-4)GlcNAc
# How it was run: as §1
# [30] = target: Neu5Ac(a2-3)Gal(b1-3)GalNAc(b1-4)[Neu5Ac(a2-3)]Gal(b1-4)Glc
# How it was run: as §1
# [31] = target: Neu5Ac(a2-3)Gal(b1-3)GalNAc(b1-4)[Neu5Ac(a2-8)Neu5Ac(a2-3)]Gal(b1-4)Glc
# How it was run: as §1
binder,measurement,setting,value
"ABA (Agaricus bisporus), Q00022 (protein) MTYTISIRVYQTTPKGFFRPVERTNWKYANGGTWDEVRGEYVLTMGGSGTSGSLRFVSSDTDESFVATFGVHNYKRWCDIVTNLTNEQTALVINQEYYGVPIRDQARENQLTSYNVANAKGRRFAIEYTVTEGDNLKANLIIG",glycan array binding signal (z-score),GlcNAc(b1-3)Man,0.344
same,glycan array binding signal (z-score),[1],-0.238
same,glycan array binding signal (z-score),[2],-0.09
same,glycan array binding signal (z-score),[3],-0.079
same,glycan array binding signal (z-score),[4],-0.16
same,glycan array binding signal (z-score),[5],-0.328
same,glycan array binding signal (z-score),GlcNAc(b1-4)GlcNAc,-0.236
same,glycan array binding signal (z-score),[6],-0.093
same,glycan array binding signal (z-score),[7],-0.172
same,glycan array binding signal (z-score),[8],-0.05
same,glycan array binding signal (z-score),[9],-0.251
same,glycan array binding signal (z-score),[10],-0.227
same,glycan array binding signal (z-score),GlcNAc(b1-6)GalNAc,0.053
same,glycan array binding signal (z-score),[11],-0.026
same,glycan array binding signal (z-score),Kdn(a2-3)Gal(b1-3)GalNAc,0.099
same,glycan array binding signal (z-score),Kdn(a2-3)Gal(b1-3)GlcNAc,-0.215
same,glycan array binding signal (z-score),Kdn(a2-3)Gal(b1-4)Glc,-0.171
same,glycan array binding signal (z-score),Kdn(a2-3)Gal(b1-4)GlcNAc,-0.258
same,glycan array binding signal (z-score),[12],-0.159
same,glycan array binding signal (z-score),Kdn(a2-6)Gal(b1-4)GlcNAc,-0.239
same,glycan array binding signal (z-score),[13],-0.223
same,glycan array binding signal (z-score),[14],-0.042
same,glycan array binding signal (z-score),Man(a1-2)Man(a1-3)Man,-0.24
same,glycan array binding signal (z-score),[15],-0.219
same,glycan array binding signal (z-score),[16],-0.274
same,glycan array binding signal (z-score),[17],0.46
same,glycan array binding signal (z-score),[18],-0.133
same,glycan array binding signal (z-score),[19],-0.219
same,glycan array binding signal (z-score),[20],-0.215
same,glycan array binding signal (z-score),[21],-0.237
same,glycan array binding signal (z-score),Man(a1-3)[Man(a1-6)]Man,-0.224
same,glycan array binding signal (z-score),[22],2.82
same,glycan array binding signal (z-score),[23],-0.112
same,glycan array binding signal (z-score),[24],-0.202
same,glycan array binding signal (z-score),[25],0.241
same,glycan array binding signal (z-score),[26],-0.221
same,glycan array binding signal (z-score),Man(a1-6)Man,-0.012
same,glycan array binding signal (z-score),Man(b1-4)GlcNAc,-0.205
same,glycan array binding signal (z-score),MurNAc(b1-4)GlcNAc,-0.275
same,glycan array binding signal (z-score),Neu5Ac(a2-3)Gal,-0.22
same,glycan array binding signal (z-score),[27],0.197
same,glycan array binding signal (z-score),[28],-0.117
same,glycan array binding signal (z-score),[29],0.11
same,glycan array binding signal (z-score),[30],-0.39
same,glycan array binding signal (z-score),[31],-0.227
